The list shows a part of the results. Most values come without repeats; read them as rough.
How the values were obtained:
Test in all cases: cell count relative to DMSO control; melanoma cells; higher = more viable cells
Conditions in all cases: library dose: standard library concentration; 72 h
SkMel28 = test system: SkMel28
SkMel2 = test system: SkMel2
SkMel30 = test system: SkMel30
SkMel5 = test system: SkMel5
UACC257 = test system: UACC257
UACC62 = test system: UACC62
WM115 = test system: WM115
WM1716 = test system: WM1716
WM1745 = test system: WM1745
WM3526 = test system: WM3526
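Note: cells treated in 1,536-well plates, then fixed and DAPI-stained, with nuclei counted from automated high-throughput microscope images.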

| Compound | cell count (SkMel28) | cell count (SkMel2) | cell count (SkMel30) | cell count (SkMel5) | cell count (UACC257) | cell count (UACC62) | cell count (WM115) | cell count (WM1716) | cell count (WM1745) | cell count (WM3526) |
| --- | --- | --- | --- | --- | --- | --- | --- | --- | --- | --- |
| CCN(CC)CCNC(=O)c1c(C)[nH]c(/C=C2\C(=O)Nc3ccc(F)cc32)c1C [sunitinib] + CO[C@@H]1[C@H](N(C)C(=O)c2ccccc2)C[C@H]2O[C@]1(C)n1c3ccccc3c3c4c(c5c6ccccc6n2c5c31)C(=O)NC4 [Midostaurin] (first compound 2 µM, partner dose 0.4 µM) | 68.1% | 70.6% | 54.4% | 42.4% | 62.1% | 49% | 44.9% | 62.1% | 23.6% | 52.4% |
| C[C@]1(O)C[C@@H](c2nc(-c3ccc4ccc(-c5ccccc5)nc4c3)c3c(N)nccn32)C1 + Cc1cc(Nc2cc(N3CCN(C)CC3)nc(/C=C/c3ccccc3)n2)n[nH]1 [ENMD2076] (first compound 2 µM, partner dose 0.2 µM) | 69.2% | 77.7% | 88.1% | 77.9% | 78.3% | 87.4% | 75.4% | 84% | 41.4% | 69.7% |
| Cn1cnc2c(F)c(Nc3ccc(Br)cc3Cl)c(C(=O)NOCCO)cc21 [selumetinib] + CCN(CC)CCNC(=O)c1c(C)[nH]c(/C=C2\C(=O)Nc3ccc(F)cc32)c1C [sunitinib] (first compound 0.075 µM, partner dose 2 µM) | 29.1% | 15.9% | 33.1% | 56.9% | 94.2% | 35.4% | 62.8% | 67.5% | 39% | 43.2% |
| Cn1cnc2c(F)c(Nc3ccc(Br)cc3Cl)c(C(=O)NOCCO)cc21 [selumetinib] + Nc1ccn([C@@H]2O[C@H](CO)[C@@H](O)C2(F)F)c(=O)n1 [gemcitabine] (first compound 0.075 µM, partner dose 0.002 µM) | 58% | 54.8% | 69.6% | 80.8% | 109% | 56.4% | 73.7% | 72.8% | 50.1% | 69.7% |
| Cn1cnc2c(F)c(Nc3ccc(Br)cc3Cl)c(C(=O)NOCCO)cc21 [selumetinib] + Cn1c(Nc2ccc(C(F)(F)F)cc2)nc2cc(Oc3ccnc(-c4ncc(C(F)(F)F)[nH]4)c3)ccc21 [CHIR265] (first compound 0.075 µM, partner dose 0.4 µM) | 23.3% | 1.28% | 43.5% | 35.9% | 75.2% | 38.4% | 25.7% | 48.4% | 49.2% | 26.6% |
| C[C@]1(O)C[C@@H](c2nc(-c3ccc4ccc(-c5ccccc5)nc4c3)c3c(N)nccn32)C1 + O=C(O)c1ccc(-c2c[nH]c3ncc(-c4ccccc4)cc23)cc1C1CCCC1 [GSK650394] (first compound 2 µM, partner dose 0.8 µM) | 114% | 80.1% | 100% | 94.8% | 61.9% | 74.2% | 100% | 89.1% | 71% | 67.9% |
| Cn1cnc2c(F)c(Nc3ccc(Br)cc3Cl)c(C(=O)NOCCO)cc21 [selumetinib] + Cc1cc(N2CCOCC2)cc2[nH]c(-c3c(NC[C@@H](O)c4cccc(Cl)c4)cc[nH]c3=O)nc12 [BMS536924] (first compound 0.075 µM, partner dose 1 µM) | 42.5% | 14.7% | 58.6% | 63.6% | 89.7% | 69.2% | 63.4% | 77.2% | 45.5% | 63.4% |
| COc1cc([C@@H]2c3cc4c(cc3[C@@H](O[C@@H]3O[C@@H]5CO[C@@H](C)O[C@H]5[C@H](O)[C@H]3O)[C@H]3COC(=O)[C@H]23)OCO4)cc(OC)c1O [etoposide] + CS(=O)(=O)c1ccc(C(=O)Nc2ccc(Cl)c(-c3ccccn3)c2)c(Cl)c1 [vismodegib] (first compound 0.1 µM, partner dose 5 µM) | 79.1% | 78.9% | 64.7% | 73% | 119% | 32.7% | 67.9% | 79% | 104% | 92.8% |
| CCN(CC)CCNC(=O)c1c(C)[nH]c(/C=C2\C(=O)Nc3ccc(F)cc32)c1C [sunitinib] + NC(=O)Nc1cc(-c2cccc(F)c2)sc1C(=O)N[C@H]1CCCNC1 [AZD7762] (first compound 2 µM, partner dose 0.1 µM) | 39.9% | 68% | 58% | 40.8% | 95.8% | 54.6% | 42.7% | 71.4% | 29.5% | 46.3% |
| CCN(CC)CCNC(=O)c1c(C)[nH]c(/C=C2\C(=O)Nc3ccc(F)cc32)c1C [sunitinib] + Clc1ccc(Nc2nnc(Cc3ccncc3)c3ccccc23)cc1 [vatalanib] (first compound 2 µM, partner dose 10 µM) | 41.4% | 61.8% | 60.2% | 42.6% | 81.4% | 44.7% | 67.3% | 88.3% | 32.1% | 44.2% |
| Cn1cnc2c(F)c(Nc3ccc(Br)cc3Cl)c(C(=O)NOCCO)cc21 [selumetinib] + Clc1ccc(Nc2nnc(Cc3ccncc3)c3ccccc23)cc1 [vatalanib] (first compound 0.075 µM, partner dose 10 µM) | 63.9% | 76.7% | 74.7% | 59.7% | 93.4% | 60.5% | 67.2% | 79.9% | 73.8% | 73.1% |
| CCN(CC)CCNC(=O)c1c(C)[nH]c(/C=C2\C(=O)Nc3ccc(F)cc32)c1C [sunitinib] + O=C(O)[C@@H]1[O][Sb](=[O])([O][Sb]2(=[O])[O][C@H]([C@H](O)CO)[C@H](O)[C@H](C(=O)O)[O]2)[O][C@H]([C@H](O)CO)[C@@H]1O [stibogluconate] (first compound 2 µM, partner dose 10 µM) | 46.5% | 61% | 59.5% | 62.8% | 98.5% | 62.3% | 48.7% | 111% | 43.8% | 53.3% |
| COc1cc([C@@H]2c3cc4c(cc3[C@@H](O[C@@H]3O[C@@H]5CO[C@@H](C)O[C@H]5[C@H](O)[C@H]3O)[C@H]3COC(=O)[C@H]23)OCO4)cc(OC)c1O [etoposide] + CCN(CC)CCNC(=O)c1c(C)[nH]c(/C=C2\C(=O)Nc3ccc(F)cc32)c1C [sunitinib] (first compound 0.1 µM, partner dose 2 µM) | 53.9% | 53.1% | 57.6% | 58.1% | 99.1% | 49.4% | 53.3% | 87.1% | 44% | 53.1% |
| Cn1cnc2c(F)c(Nc3ccc(Br)cc3Cl)c(C(=O)NOCCO)cc21 [selumetinib] + Cn1c(=O)n(-c2ccc(C(C)(C)C#N)cc2)c2c3cc(-c4cnc5ccccc5c4)ccc3ncc21 [NVP-BEZ235] (first compound 0.075 µM, partner dose 0.02 µM) | 39.5% | 48.9% | 45.1% | 60.3% | 77.6% | 47.4% | 52.7% | 60.4% | 70.7% | 46.1% |
| COc1cc([C@@H]2c3cc4c(cc3[C@@H](O[C@@H]3O[C@@H]5CO[C@@H](C)O[C@H]5[C@H](O)[C@H]3O)[C@H]3COC(=O)[C@H]23)OCO4)cc(OC)c1O [etoposide] + CO[C@@H]1[C@H](N(C)C(=O)c2ccccc2)C[C@H]2O[C@]1(C)n1c3ccccc3c3c4c(c5c6ccccc6n2c5c31)C(=O)NC4 [Midostaurin] (first compound 0.1 µM, partner dose 0.4 µM) | 69.9% | 54% | 79.6% | 56.2% | 68.5% | 67% | 37.4% | 40.9% | 40.9% | 76.2% |
| COc1cc([C@@H]2c3cc4c(cc3[C@@H](O[C@@H]3O[C@@H]5CO[C@@H](C)O[C@H]5[C@H](O)[C@H]3O)[C@H]3COC(=O)[C@H]23)OCO4)cc(OC)c1O [etoposide] + O=C(Nc1cc(C(F)(F)F)cc(C(F)(F)F)c1)c1cc(Cl)ccc1O [IMD0354] (first compound 0.1 µM, partner dose 0.08 µM) | 47.2% | 77.6% | 86.3% | 76.1% | 87.1% | 76.5% | 81.1% | 67.4% | 99.8% | 79.9% |
| Cn1cnc2c(F)c(Nc3ccc(Br)cc3Cl)c(C(=O)NOCCO)cc21 [selumetinib] + NC(=O)c1ccc(N(C(N)=O)c2c(F)cccc2F)nc1-c1ccc(F)cc1F [VX702] (first compound 0.075 µM, partner dose 2 µM) | 41% | 69.3% | 59.1% | 82.5% | 99.7% | 77.7% | 94.7% | 103% | 110% | 60.5% |
| Cn1cnc2c(F)c(Nc3ccc(Br)cc3Cl)c(C(=O)NOCCO)cc21 [selumetinib] + Cc1cc(Nc2cc(N3CCN(C)CC3)nc(/C=C/c3ccccc3)n2)n[nH]1 [ENMD2076] (first compound 0.075 µM, partner dose 0.2 µM) | 43.9% | 46.3% | 45.1% | 62.3% | 92.2% | 50.9% | 63.8% | 79.1% | 73.8% | 48.5% |
| CCN(CC)CCNC(=O)c1c(C)[nH]c(/C=C2\C(=O)Nc3ccc(F)cc32)c1C [sunitinib] + Nc1ncn([C@H]2C[C@H](O)[C@@H](CO)O2)c(=O)n1 [decitabine] (first compound 2 µM, partner dose 0.5 µM) | 62.4% | 82.1% | 60.6% | 61.7% | 91.1% | 49.3% | 67.3% | 99.7% | 51.5% | 58.5% |
| COc1cc([C@@H]2c3cc4c(cc3[C@@H](O[C@@H]3O[C@@H]5CO[C@@H](C)O[C@H]5[C@H](O)[C@H]3O)[C@H]3COC(=O)[C@H]23)OCO4)cc(OC)c1O [etoposide] + OCc1c[nH]c2ccccc12 [Indole-3-carbinol] (first compound 0.1 µM, partner dose 4 µM) | 80.8% | 77.5% | 76.9% | 68.2% | 108% | 73.6% | 85.2% | 79.8% | 89.9% | 101% |

From the supplement of paper PMC4604168 (melanoma cell lines)
